Whole data set: some 1,800 sequences, median “median log2 fold change of GCK-ALFA target abundance (FLAG IP / Myc IP barcode read proportion)” near 0.14, cut for the lowest 2% near -0.84. The list shows a part of the results.

Sequences and labels used below:
T1: TRAF2, Q12933
T1 chain: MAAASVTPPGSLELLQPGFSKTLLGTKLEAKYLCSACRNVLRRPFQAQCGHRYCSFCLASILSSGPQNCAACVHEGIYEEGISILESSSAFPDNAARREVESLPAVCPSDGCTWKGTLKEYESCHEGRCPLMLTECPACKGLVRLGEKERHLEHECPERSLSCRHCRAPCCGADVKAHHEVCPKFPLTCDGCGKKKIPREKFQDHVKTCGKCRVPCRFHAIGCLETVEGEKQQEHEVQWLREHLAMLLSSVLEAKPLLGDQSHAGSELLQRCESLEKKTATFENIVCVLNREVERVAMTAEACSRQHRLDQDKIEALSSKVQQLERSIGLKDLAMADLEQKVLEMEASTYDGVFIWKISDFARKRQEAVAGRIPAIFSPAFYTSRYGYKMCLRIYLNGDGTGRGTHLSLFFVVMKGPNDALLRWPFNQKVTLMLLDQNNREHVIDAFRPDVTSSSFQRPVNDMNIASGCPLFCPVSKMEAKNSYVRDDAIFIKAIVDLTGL

B1: traf2_out_20_3_2262 (protein)
chain: DELRAKAEAALAEAEALLAELAPRLPAADAARLQELLDAAKAAFATDLRDALVYLSELRRLALALAEEARAAGDAALAAALEALADAVGRAANYVYKIIE
B2: traf2_out_11_155_763 (protein)
chain: SEKQEIYREYNDKVSEIADELEAFLEEVIAEVAKRDPEVAARARAVLAAHRDASARSRALLLARVLREAGLEEEAKRVEEAIEEAQKKMNEIAIETEKKL
B3: traf2_out_20_3_2230 (protein)
chain: EELKKKAEEALEKALKKLKEIIKEADPETAKVLTALLKELEKAKELDPVDRLVVVSKVRRTLLELAQKAKAAGNEELAKKLEEAAELLQRLAQLLYEIIE
B4: traf2_out_13_95_1066 (protein)
chain: SRETARKINELADKAEEKALALLDEARAALADDPEAVAALDEARRLAETRGIRAAIDALRQARAANPAHAAEFDALIAELEAIRRELGREVAKILKEAEE
B5: traf2_out_16_104_1372 (protein)
chain: DPALVAQAQAAIAEAQKAIEEAQKVLNELYKKYEKASPEEKVKLSDKMVEISEARRKVQQLVQELQALLASGADPAAIQAAIAKLQAAIKELKKLIEEAK
B6: traf2_out_13_95_1143 (protein)
chain: SAEVAKKIMEIADRMLAEKDAILDELEAELEARGLLTPEVAAALAAARRSSIRTAIHRLRELAERLPEARELLEAAIERLEAIQREAGREVAKILKEEEE
B7: traf2_out_20_3_2206 (protein)
chain: EELEEQLEKELERALKLLKEAAKLADEETKKVLEELIKELKESRKLSYEDRLVTLSEIRRKVRELALAARAAGDEELAAVLDEAADELQRAMNLVYKIIE
B8: traf2_out_13_95_1141 (protein)
chain: SAEVAAKINAIADRLLAEKDAILDELEAQLKAAGLLTPELRAALEAAKRSSISTAIHRLRELAERYPEARAALEAAIARLEALRREAGREVAEILKEEKE
B9: traf2_out_1_27_1008 (protein)
chain: SDEEFRELLREADRKLGSLSPEEALAAAREAIREALERGVGEARHLAVVLILSQSDPELAAALLEAIEEVLREAGVSEEVIEEIRRRAESGQKRLDEARA
B10: traf2_out_20_3_2213 (protein)
chain: DELVAAVREQLAKIRELLEQARPRLAPEDYARLNALLARAEEALETDPSDALVALSELRRALLELAERARAAGDEELAKLLEEAAEAANKAANLVMQLLE
B11: traf2_out_13_95_1205 (protein)
chain: EEEKTKKLREVTNKIADDLIDFTEATADAIEAATGNAAYRDEILAALRRHGVRAAIALIREYAAADPAHAAVYEAAAAALEAKVREAGREVAKADKEIAE
B12: traf2_out_11_155_671 (protein)
chain: EEKQKLNNELVNELTDIADALKAEVTAILEETAAAHPEHAAALAAVRAAGATLSGTSFARRAAQLLRELGLEEAAARVEALLEEAQKKMNEVYKKYEKKL
B13: traf2_out_18_3_1899 (protein)
chain: KEEELKKVTEEIDKIIDEVTAKAREVLDWLAAHAPEVADRVAALRADLDAGAGPFGILEELAELAREAGFEEEAAEIEAFLKEKRKKLQELVEEYEKLRK
B14: traf2_out_13_95_1119 (protein)
chain: SAEVAARIMAIADEMEEKVLAVLEKLLAKAKAAGKAVEEVTAILELAKHGTINEVIHRLKELAKKYPELKAEFDAAIKELEAIRREAGRRVAEILREEEE
B15: traf2_out_19_16_1964 (protein)
chain: AAEELERLREELEEIERRVEELERYFEANEETLTREEASDLLVEVSELRRRAREILQELDRLAPYDPEEVERLRERAEEVIERAQRLANRLVEHYLALRK
B16: traf2_out_11_169_887 (protein)
chain: EEEEKNRKFNDFALELNDEAKKELLEFALKLAKEKGLDVEEVKKIYEENKNKSLSYLASELIRYFKEKGDEEAAKKVLEKYEELKEKINKEGTKKLKELE
B17: traf2_out_18_167_1866 (protein)
chain: SAELQARLDAASDRLVELSEIRRAFRLALEKLEESRELARAVLEEALKKLPDSEELRAALEAFETLSDEEIRAFLEETAERLQKEMNAAYLELERLRAEL
B18: traf2_out_11_131_664 (protein)
chain: MDAVAMARSVAERVDARLAIAEGLSPEERRRLALHALDTVEALAEYLKEHVDEMSKEDIEEAARILRETVERIVALDPAVAPEAEEVLKAIEELLEAAEK
B19: traf2_out_13_95_1099 (protein)
chain: SLELAEKIMEIADRMLDESEAILTELLAKAKEKGIAVEEVQEALHLARTRSINEAIHKLQELSKKYPELKAELDAAIERLEALKREAGREVARLIKEEEE
B20: traf2_out_17_162_1646 (protein)
chain: SELEKKKEELKKKLEELEERVERLEKLSETISEYSKDELSDLIVEASEVKREALLLIQEIDSLKSKLSPEEYEELKSRAEDIVRRAQRVAQKFYDEREKK
B21: traf2_out_12_50_979 (protein)
chain: SEEERQREEDERIAELADRALDEADRIYAETGGDPAAAFARIREEAEANPEKARFLKIVARALRRLFIRRGADPATVDALADETLEFLDEIIEEKVEPPG
B22: traf2_out_11_104_650 (protein)
chain: LTREQARELNDFAMEKRDEALAIARETAAALRAAGHEEEAARVEAVINHPGSGISTIRNTLEELRPRLDPESQKVADAAIAELRALQKEVSDKLNELEAK
B23: traf2_out_16_177_1460 (protein)
chain: ERQKLMDRLVVLSEIRRAARYIVENKEEEAKKHLERARELAEEAGDEEGLEKIKRLEELAKKNTEEAKKEIEELAREAQREAGRLAEEIEKLIKEEAEKE
B24: traf2_out_19_16_1974 (protein)
chain: KEEELKKIEKELKEIREEVRRLEEYFEANEETLTREELSDLLVEASELKRKAQELLEKLKELKDYDPERVEKLEKEAEEIIEEAQRLMNRLVDRYLELLK
B25: traf2_out_11_79_926 (protein)
chain: SELQKELEEILEELERVIERLEEAIENPEDREELVKEIIEELREIYRRVGNLLLRTENTDLGEVATHIRRAIRALEAGKLEEAKRHLEEAAEQVKKIIKE
B26: traf2_out_20_3_2211 (protein)
chain: SELKEEIKKQLAEIKKLLEEAKPGLAPEDYAELQALLKAAEEALEKDPSDALVKLSELKRRLLELADRARAAGDAELAAKLEAAADAANKAANLVYKLLE
B27: traf2_out_13_95_1078 (protein)
chain: SAEANKKIMEIADEMLEKSLKILKELSKKVADNPEMKAAVEEAIHLAETQGINAAIHLLEKLSEANPEYKELLDEAIKKLKEIKEEAGKKVAEILKEEKE
B28: traf2_out_20_3_2212 (protein)
chain: EELRKKVEEELEKIRELLEKAKPRLPEEDYARLKELLERAEEALKEDPSDALVELSELKALLLRLSQEARAAGDEELAALLDEAADAANKAANLVYKILE
B29: traf2_out_6_156_2446 (protein)
chain: MLEKILEETKKKLDELIKKLSEASEEKKIKYISKAAGTVYRALQKLREAGASLEEIKAFSDEILEHVDKKADEYGLDEKTKNLLLASLNAVFDVALEEAK

The target in this assay is T1, TRAF2, Q12933. The assay can be described thus: median log2 fold change of GCK-ALFA target abundance (FLAG IP / Myc IP barcode read proportion) (log2 ratio); each designed protein is fused to an ALFA-tag nanobody in HEK293 cells to bring the named protein to FLAG-tagged glucokinase (GCK); Myc marks an untargeted standard; higher = target protein stabilised (more abundant). The conditions noted are these: target protein: 3xFLAG-MCP-GCK-ALFA reporter; HEK293 landing pad (RPLP). An outline of the steps: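 Sequencing of reverse-transcribed, amplified circular RNA barcodes from anti-FLAG and anti-Myc immunoprecipitates provided the readout for an ALFA-nanobody-fused binder library recombined into HEK293 landing-pad cells. Those cells were induced with 2 μg mL^−1 doxycycline, transfected with a plasmid expressing a FLAG-tagged target and a Myc-tagged standard, and lysed after 48 h. Target abundance is the per-binder median log2 ratio of FLAG to Myc barcode read proportions. Only barcodes at a proportion of ≥10^−7 in both replicates and binders with ≥3 barcodes per replicate were kept, with a 10^−6 pseudocount added before the two replicates were pooled.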
Consider B1, for which the “median log2 fold change” value was determined as 0.219.

With B2, the “median log2 fold change” value stood at 0.299.

For B3, the “median log2 fold change” value was -0.000551.

Regarding B4, the “median log2 fold change” value was -0.00811.

With B5, the “median log2 fold change” value was -0.0761.

Consider B6, for which the “median log2 fold change” value was -0.392.

Turning to B7, the “median log2 fold change” value came out at 0.411.

For the molecule B8, the “median log2 fold change” value is -0.98.

For the molecule B9, the “median log2 fold change” value amounted to 0.198.

Consider B10, for which the “median log2 fold change” value stood at 0.129.

In the case of B11, the “median log2 fold change” value was 0.149.

Turning to B12, the “median log2 fold change” value amounted to 0.285.

For the molecule B13, the “median log2 fold change” value stood at 0.766.

As for B14, the “median log2 fold change” value was found to be 0.0752.

Consider B15, for which the “median log2 fold change” value was -0.167.

For the molecule B16, the “median log2 fold change” value was 0.184.

Regarding B17, the “median log2 fold change” value stood at 0.231.

As to B18, the “median log2 fold change” value stood at 0.132.

For B19, the “median log2 fold change” value is -0.464.

As for B20, the “median log2 fold change” value amounted to 0.511.

With B21, the “median log2 fold change” value was 0.135.

With B22, the “median log2 fold change” value came to 0.221.

For the molecule B23, the “median log2 fold change” value was determined as 0.0842.

Turning to B24, the “median log2 fold change” value came to 0.0352.

B25: the “median log2 fold change” value is 0.243.

With B26, the “median log2 fold change” value was -0.00138.

With B27, the “median log2 fold change” value came out at 0.00315.

On to B28, for which the “median log2 fold change” value was -0.0318.

Take B29: the “median log2 fold change” value is 0.168.

The record behind these values is the supplement of paper PMC12632987.
